± gives the uncertainty stated by the source. Whole data set: some 9,900 compounds, median “viability index relative to DMSO control” near 1, cut for the lowest 2% near 0.85. Some of the results follow.

The subject of the experiment is Plasmodium falciparum NF54 stage V gametocytes. The experiment is described as follows: viability index relative to DMSO control (fraction); higher = less gametocyte killing. The note with it: 2.5 µM, library set: Broad Institute DOS, incubation time: 72 h. The essentials: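 P. falciparum NF54 stage V gametocytes (serum-free medium, 0.75% gametocytemia, 1.25% hematocrit) were exposed to compound at 2.5 µM for 72 hr at 37°C under low oxygen, then stained with MitoTracker Red CMXRos and saponin for one to two hours. Red particles of 20–70 µm2 in one field per well were counted, and the viability index is that count scaled to the plate mean of solvent-only wells.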
With `O=C(C[C@H]1C[C@H]2c3cc(NC(=O)c4ccc5c(c4)OCO5)ccc3O[C@H]2[C@H](CO)O1)NCc1ccc(Oc2ccccc2)cc1`, the viability index amounted to 1.03 ± 0.11.

The compound `CCCC#Cc1ccc([C@@H]2[C@H](CO)N3C(=O)CN(S(=O)(=O)c4ccccc4C)C[C@@H]23)cc1` had a viability index of 0.965 ± 0.13.

As to `N#C[C@H]1[C@@H](c2ccccc2-c2ccccc2)[C@H](CO)N1C(=O)Cc1ccncc1`, the viability index was determined as 0.995 ± 0.044.

As for `COc1cccc(-c2ccc3c(c2)[C@@H]2[C@@H](CCN2S(=O)(=O)c2ccccc2F)[C@@H](CO)N3)c1`, the viability index stood at 0.964 ± 0.17.

In turn, `O=C(C1CCC1)N1CC(=O)N2[C@H](CO)[C@H](c3ccc(Br)cc3)[C@@H]2C1` had a viability index of 1.1 ± 0.057.

For the compound `CC(C)NC(=O)N1CC2(C1)[C@H](c1ccccc1)[C@H](CO)N2C(=O)C1CCOCC1`, the viability index is 1.12 ± 0.02.

`CS(=O)(=O)N1CC(=O)N2[C@@H](CO)[C@H](c3ccc(Br)cc3)[C@@H]2C1` registered a viability index of 1.05 ± 0.057.

In turn, `C/C=C/c1ccc([C@@H]2[C@H](CO)N[C@H]2CN(CC)C(=O)CN2CCOCC2)cc1` displayed a viability index of 0.993 ± 0.061.

The compound `COc1ccc2c3c([C@H](CO)N(C[C@]33CN(C3)C(=O)Nc3ccc(F)cc3)C(=O)c3ccc(F)cc3)n(C)c2c1` gave a viability index of 0.923 ± 0.079.

In turn, `C[C@H](CO)N1C[C@H](C)[C@@H](CN(C)C(=O)Nc2ccc(C(F)(F)F)cc2)Oc2ccc(NS(=O)(=O)c3ccc(Cl)cc3)cc2CC1=O` registered a viability index of 0.917 ± 0.088.

For `CCS(=O)(=O)N1C[C@@]2(C1)CN([C@@H](CO)c1[nH]c3cc(OC)ccc3c21)S(=O)(=O)c1cn(C)cn1`, the viability index was 0.917 ± 0.098.

On to `COc1ccccc1-c1ccccc1[C@H]1[C@@H](C#N)N(C(=O)C2CCOCC2)[C@@H]1CO`, for which the viability index came out at 1 ± 0.12.

As for `CCS(=O)(=O)N1[C@H](CO)[C@@H](c2ccc(C#Cc3ccccc3F)cc2)[C@@H]1C#N`, the viability index was determined as 1.09 ± 0.081.

The compound `C[C@@H]1CN([C@@H](C)CO)C(=O)c2cc(C3=CCCC3)cnc2O[C@@H]1CN(C)C(=O)Nc1ccc(C(F)(F)F)cc1` had a viability index of 1.072 ± 0.0069.

`CCCN1[C@H](CO)[C@H](c2ccc(C3=CCCC3)cc2)[C@H]1CNC(=O)NC(C)C` showed a viability index of 1.12 ± 0.033.

The compound `COc1ccc([C@@H]2C/C=C/C[C@H](C)Oc3ccccc3C(=O)N(C)[C@@H](Cc3ccccc3)C(=O)N2)c(OC)c1.COc1ccc([C@@H]2C/C=C\C[C@H](C)Oc3ccccc3C(=O)N(C)[C@@H](Cc3ccccc3)C(=O)N2)c(OC)c1` yielded a viability index of 0.989 ± 0.071.

The compound `O=C(C[C@@H]1C=C[C@H](NC(=O)Nc2cccc(F)c2)[C@@H](CO)O1)NCC1CCCCC1` displayed a viability index of 0.994 ± 0.033.

Regarding `O=C(C[C@H]1CC[C@H]2[C@@H](COC[C@H](O)CN2Cc2ccc(F)cc2)O1)NCCc1ccccc1`, the viability index was 0.995 ± 0.027.

In turn, `COc1ccc([C@H]2C/C=C\C[C@H](c3ccc4c(c3)OCO4)NC(=O)[C@H](c3ccccc3)CC(=O)N2)c(OC)c1` registered a viability index of 1.037 ± 0.003.

`N#C[C@H]1[C@@H](c2ccc(C3=CCCC3)cc2)[C@H](CO)N1C(=O)c1ccccn1` had a viability index of 1.09 ± 0.029.

`CCCNC(=O)N(C)C[C@H]1Oc2ncc(C#CC3CCCCC3)cc2C(=O)N([C@@H](C)CO)C[C@@H]1C` yielded a viability index of 0.929 ± 0.067.

In the case of `CO[C@@H](CN(C)S(=O)(=O)c1ccc(C)cc1)[C@@H](C)CN(C(=O)Nc1ccccc1F)[C@@H](C)CO`, the viability index was found to be 0.99 ± 0.03.

Turning to `C[C@@H]1CN([C@@H](C)CO)C(=O)c2ccccc2-c2ccccc2CO[C@@H]1CN(C)S(=O)(=O)c1cccs1`, the viability index amounted to 0.989 ± 0.056.

`O=C(C1CCCCC1)N1[C@@H](CO)[C@@H]2c3ccccc3N(S(=O)(=O)c3ccccc3)C[C@@H]21` yielded a viability index of 1 ± 0.022.

As for `O=C(C1CCC1)N1C[C@@H]2N[C@H](C1)[C@@H]2c1ccc(-c2cncnc2)cc1`, the viability index amounted to 1.115 ± 0.0039.

`COc1ccccc1S(=O)(=O)N(C)C[C@H]1OCc2ccccc2-c2ccccc2C(=O)N([C@H](C)CO)C[C@H]1C` showed a viability index of 1.07 ± 0.12.

The compound `CC1C=NC(S(=O)(=O)N2CC[C@H]3[C@@H](CO)N(C)c4ccc(C#Cc5cccnc5)cc4[C@H]32)=N1` (stereo not given in full) returned a viability index of 1.07 ± 0.03.

Turning to `CC(C)CC#Cc1ccc([C@@H]2[C@H](CO)N3C(=O)CN(C(=O)c4cccc(F)c4)C[C@@H]23)cc1`, the viability index turned out to be 1.11 ± 0.013.

For `O=C(C1CCCC1)N1CC2(C1)[C@H](c1ccccc1)[C@H](CO)N2Cc1ccc(Cl)cc1`, the viability index worked out at 1.125 ± 0.0037.

Turning to `COCC#Cc1ccc([C@H]2[C@H]3CN(C(=O)c4ccncc4)CC(=O)N3[C@H]2CO)cc1`, the viability index was found to be 1.06 ± 0.13.

`COc1ccc(cc1)S(=O)(=O)N1C[C@@]2(C1)CN([C@H](CO)c1c2c2ccc(OC)cc2n1C)C(=O)CN(C)C` came in with a viability index of 0.841 ± 0.028.

For `O=C(C1CCOCC1)N1C[C@@H]2[C@H](c3ccccc31)[C@@H](CO)N2C(=O)Nc1ccccc1F`, the viability index came to 0.988 ± 0.055.

On to `COc1ccc(NC(=O)N2CCCCN3[C@@H](CO)[C@@H](c4ccc(-c5ccccc5F)cc4)[C@@H]3C2)cc1`, for which the viability index amounted to 0.993 ± 0.011.

In turn, `CCCN(C)C[C@H]1OCc2ccccc2-c2ccccc2C(=O)N([C@@H](C)CO)C[C@H]1C` returned a viability index of 0.89 ± 0.011.

On to `O=C(C[C@H]1C[C@H]2c3cc(NC(=O)Nc4ccccc4F)ccc3O[C@H]2[C@H](CO)O1)NCc1ccccn1`, for which the viability index was found to be 0.97 ± 0.075.

In turn, `C[C@@H](NC(=O)C[C@H]1C=C[C@@H](NS(=O)(=O)c2cccc(F)c2)[C@@H](CO)O1)c1ccccc1` had a viability index of 1.05 ± 0.12.

Consider `O=C(C1CCOCC1)N1[C@H](CO)[C@@H](c2ccccc2)C12CN(Cc1cccc(Cl)c1)C2`, for which the viability index turned out to be 1.1 ± 0.062.

For `COc1ccc(NC(=O)N(C)C[C@@H]2Oc3ccc(NC(=O)Nc4cccc5ccccc45)cc3CC(=O)N([C@@H](C)CO)C[C@@H]2C)cc1`, the viability index came to 0.9446 ± 0.0047.

As to `O=C(C[C@H]1CC[C@@H]2[C@H](COC[C@H](O)CN2C(=O)Nc2ccccc2)O1)NCc1ccccc1F`, the viability index amounted to 1.11 ± 0.041.

On to `COc1ccc2c3c([nH]c2c1)[C@@H](CO)NC[C@]31CCN(CC1)C(=O)c1ccccc1`, for which the viability index came to 0.973 ± 0.03.

Compound `COc1cccc(S(=O)(=O)Nc2ccc3c(c2)C(=O)N(C)C[C@H](OC)[C@H](C)CN(Cc2ccccc2F)[C@H](C)CO3)c1` returned a viability index of 0.974 ± 0.1.

The compound `CC(C)NC(=O)N1[C@H](CNC(=O)CN(C)C)[C@@H](c2ccccc2)[C@@H]1CO` gave a viability index of 1.02 ± 0.1.

The compound `COc1ccc2c3c([nH]c2c1)[C@@H](CO)N(C[C@]31CCN(Cc2nccs2)CC1)C(=O)C1CCOCC1` gave a viability index of 0.915 ± 0.072.

Compound `Cc1ccccc1S(=O)(=O)N1CC[C@@H]2[C@@H](CO)N(C)c3ccc(-c4cccc(F)c4)cc3[C@@H]21` had a viability index of 0.94 ± 0.027.

`C[C@@H]1CN([C@@H](C)CO)C(=O)c2ccccc2-c2ccccc2CO[C@@H]1CN(C)Cc1cccnc1` gave a viability index of 1.049 ± 0.005.
